The source of these data is the supplement of paper PMC3724861.

This is one part of the list.

This assay concerns T1, Caupolican (Caup) homeodomain DNA-binding domain.
T1 sequence: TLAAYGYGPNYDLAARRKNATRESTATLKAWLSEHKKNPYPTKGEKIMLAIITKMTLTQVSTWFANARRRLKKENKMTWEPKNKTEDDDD
Description: PBM E-score (8-mer, recovered from the published 9-mer minima) (E-score (dimensionless, -0.5 to 0.5)); Drosophila protein; higher = stronger relative binding preference, active = 0.31 or more. The gist of the method: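 Caup's homeodomain DNA-binding domain (residues 214-303) was produced by in vitro transcription and translation and applied at 100 nM to custom-designed protein binding microarrays. Each value is an enrichment score giving relative binding preference for a short DNA word; higher means stronger. Published 9-mer scores were the minimum of their two constituent 8-mer scores, and the 8-mer values were recovered from those minima. A cutoff of 0.31 marks candidate binding sequences.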
Consider AGCCGGTG, for which the “PBM E-score” value is inactive: -0.117.

Regarding CTCGCAGA, the “PBM E-score” value was inactive: -0.107.

ATCCTACC: the “PBM E-score” value was inactive: 0.00768.

AGCCAGGC: the “PBM E-score” value is no less than -0.0965.

CGGCAATA: the “PBM E-score” value is inactive: 0.0378.

Consider TAGAACTA, for which the “PBM E-score” value is inactive: 0.127.

Consider CGAATTCA, for which the “PBM E-score” value is inactive: -0.0438.

For AAATGGCG, the “PBM E-score” value is inactive: -0.148.

Turning to CTGGATCA, the “PBM E-score” value is inactive: 0.0529.

In the case of CCTACGTA, the “PBM E-score” value is inactive: 0.0774.

For AGCAACGG, the “PBM E-score” value is inactive: 0.0243.

With AGCAATGA, the “PBM E-score” value was inactive: 0.0684.

In the case of GGAGTTCA, the “PBM E-score” value is inactive: 0.0472.

For the sequence TGATCACA, the “PBM E-score” value was inactive: 0.18.

With ACGATAGT, the “PBM E-score” value is inactive: 0.162.

With CTGGGGGC, the “PBM E-score” value is inactive: -0.38.

On to ATCGGTTG, for which the “PBM E-score” value was inactive: 0.114.

For ATGAGGCG, the “PBM E-score” value was inactive: -0.106.

With CCATAACC, the “PBM E-score” value was inactive: 0.00069.

Take GACACTGC: the “PBM E-score” value is inactive: 0.0893.

Take CCAAACTA: the “PBM E-score” value was inactive: 0.129.

As to CGGAAAGA, the “PBM E-score” value is inactive: -0.101.

In the case of GAGCTGCC, the “PBM E-score” value was inactive: -0.213.

Turning to AACGAACT, the “PBM E-score” value is inactive: -0.0695.

With TCGTCGCA, the “PBM E-score” value was inactive: -0.0385.

Consider CTGGTGTC, for which the “PBM E-score” value is inactive: 0.0585.

As for CTCGACAG, the “PBM E-score” value is inactive: -0.0136.

Take CACAATCC: the “PBM E-score” value was inactive: 0.107.

With AAGGAGCA, the “PBM E-score” value is inactive: -0.0889.

Take ATTTTTAG: the “PBM E-score” value is inactive: -0.0375.

For the sequence ACTCACGA, the “PBM E-score” value was no less than 0.0229.

Take CAGTCACA: the “PBM E-score” value is inactive: 0.137.

Take CTAGGGGA: the “PBM E-score” value is inactive: -0.158.

On to AATCTCAT, for which the “PBM E-score” value is no less than 0.142.

With ACAACGAG, the “PBM E-score” value is inactive: 0.144.

Regarding ATGCGGTA, the “PBM E-score” value was inactive: 0.0513.

TATTACAA: the “PBM E-score” value was active: 0.341.

In the case of AGCCAAAT, the “PBM E-score” value was inactive: -0.0112.

For AAATGTCG, the “PBM E-score” value is inactive: 0.144.

Consider CCGTCTGC, for which the “PBM E-score” value was inactive: -0.133.

ACAGAACG: the “PBM E-score” value was inactive: 0.0766.

With AGGTCCGG, the “PBM E-score” value is inactive: -0.126.

With CGCCTGCC, the “PBM E-score” value is inactive: -0.256.

As for GCTACCGA, the “PBM E-score” value is inactive: -0.0973.

In the case of CTCCGCTA, the “PBM E-score” value was inactive: -0.0723.

Consider AAGTCCGC, for which the “PBM E-score” value was inactive: -0.152.

As to AACCTCTT, the “PBM E-score” value was no less than 0.0676.

Regarding AACGCTAC, the “PBM E-score” value was inactive: 0.0208.

Take GCAAATCA: the “PBM E-score” value is inactive: 0.0324.

Take ATATCGTC: the “PBM E-score” value is inactive: 0.107.

As to AAGCTCAT, the “PBM E-score” value is inactive: -0.0426.

GCTCTCAC: the “PBM E-score” value was inactive: -0.169.

Consider CCTCACCC, for which the “PBM E-score” value is inactive: -0.166.

Regarding AGGATCCA, the “PBM E-score” value was inactive: -0.074.

Consider CCGAGAAC, for which the “PBM E-score” value was inactive: -0.0456.

Turning to ACGCTGCA, the “PBM E-score” value was inactive: -0.0935.

As to GACGCACC, the “PBM E-score” value was inactive: -0.137.

Turning to GGATCGAA, the “PBM E-score” value is inactive: 0.0137.

As to AAATAGCG, the “PBM E-score” value is inactive: 0.092.

Regarding CAACCGTA, the “PBM E-score” value was inactive: 0.0275.

Consider CGCTATCA, for which the “PBM E-score” value is inactive: -0.0506.

As for AATCCTCA, the “PBM E-score” value is inactive: -0.017.
